± gives the standard deviation. Only a part is listed here, and it is no random draw.
The sequences below were run on MIWI (PIWIL1) piRISC loaded with L1MC piRNA (30 nt) (assay: pre-steady-state target cleavage rate (min^-1); MIWI and MILI are mouse PIWI proteins and EfPiwi is from a freshwater sponge; tags in brackets are library labels; higher = faster piRNA-guided slicing of the target). Details: guide: L1MC piRNA 5'p-UAACUAAAUACUAUGCAAGCUGUAGGUCCU; auxiliary factor: 500 nM mouse GTSF1.
Summary of the method: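 A transcribed, DNA-blocked target RNA library (0.1 nM) and 1 nM active affinity-purified piRISC bearing one synthetic guide were incubated in HEPES–potassium acetate buffer at 33 °C for 0–8 or 0–960 min, either with or without 500 nM GTSF1 partner protein. Uncleaved targets were sequenced, normalised to depth and to weakly complementary targets, and pooled over three trials, with k3 capped at 0.0001 min^-1. The pre-steady-state cleavage rate was derived with a burst-and-steady-state fit.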
In the case of UCCUCCUACAGCUUGCAUAGUUUUUAGAAA, the “pre-steady-state target cleavage rate” value is reported as 0.235 ± 0.042.
AGGACCAUGAGCUUGCAUAGUAUUUAGUAA was tested, and the “pre-steady-state target cleavage rate” value was 0.855 ± 0.045.
In the case of UCCUGGAUCACUUGCAUAGUAUUUAGUUA, the “pre-steady-state target cleavage rate” value is reported as 0.431 ± 0.038.
In the case of UCCUGGUACUGCUUGCAAAGUAUUUAGUUA, the “pre-steady-state target cleavage rate” value is reported as 0.46 ± 0.036.
UCCUGGAUCAGGUUGCAUAGUAUAUAGUUA was tested, and the “pre-steady-state target cleavage rate” value was 0.212 ± 0.025.
UCCUGGAACAGCUUGGAUAGUAUUUAGAAA was tested, and the “pre-steady-state target cleavage rate” value was 0.144 ± 0.027.
With UCCUGGAUCAGCUAGCAUAGUAUUUUGUUA the “pre-steady-state target cleavage rate” value was 0.637 ± 0.044.
With UCCUCCAACAGCUUGCAUAGUAUUUUGUUA the “pre-steady-state target cleavage rate” value was 0.471 ± 0.033.
With AGGUGCUACAGCUUGCAUAGUAUUUAGAAA the “pre-steady-state target cleavage rate” value was 0.165 ± 0.037.
With AGGACCUACAGCAUGCAUAGUAUUUACUUA the “pre-steady-state target cleavage rate” value was 0.609 ± 0.056.
UCCUGGAUCAGCUUGCAUACUAUUUAGUUA was tested, and the “pre-steady-state target cleavage rate” value was 0.318 ± 0.023.
With UCCUGGUACAUGCUUGCAUAGUAUUUAGUUA the “pre-steady-state target cleavage rate” value was 0.429 ± 0.026.
For UCCUGGUACAGCUUGCUUACUAUUUAGUUA, the “pre-steady-state target cleavage rate” value was 0.236 ± 0.033.
UCCUGCUUGAGCUUGCAUAGUAUUUACAAA was tested, and the “pre-steady-state target cleavage rate” value was 0.175 ± 0.031.
With UCCUGGAUCACCUUGCAUAGUAUUUACUUA the “pre-steady-state target cleavage rate” value was 0.136 ± 0.026.
In the case of UCGAGGUACAGCUUGCAUAGUAUUUAGAAA, the “pre-steady-state target cleavage rate” value is reported as 0.257 ± 0.034.
In the case of UCGAGCUACAGCUUGCAAAGUAUUUAGUUA, the “pre-steady-state target cleavage rate” value is reported as 1.17 ± 0.044.
In the case of UCCUGCUACAGCUUGCAUAGUAUUUAGCUUA, the “pre-steady-state target cleavage rate” value is reported as 0.193 ± 0.029.
UCCUGGUACAGCUUCCUUAGUAUUUAGUUA was tested, and the “pre-steady-state target cleavage rate” value was 0.279 ± 0.047.
UCCUGGAUGAGCUUGCAAACUAUUUAGUUA was tested, and the “pre-steady-state target cleavage rate” value was 0.0326 ± 0.0046.
For UGGACCUACUCCUUGCAUAGUAUUUAGUAA, the “pre-steady-state target cleavage rate” value was 0.329 ± 0.033.
With UCCUGCUACAGCUUGCAUAGUAUUUUGUUA the “pre-steady-state target cleavage rate” value was 0.799 ± 0.046.
With UCCUCCUACAGCUAGCUUAGUAUUUAGUUA the “pre-steady-state target cleavage rate” value was 0.574 ± 0.022.
With AGGACCUACAGCUUGCAUAGUAUUUUGUAA the “pre-steady-state target cleavage rate” value was 0.432 ± 0.052.

— the supplement of paper PMC10338343
